The source gives no read counts; variants with many changes may rest on few reads.

First the molecules themselves.
B1: LINE1-full (parent)
chain: UACGUAGGUGGUUUUCCCCUGAUAGUGCUAAGGGGGCCUGGAAGUUUGGACUGGGCAGAGCUCAACACAGCGUGGCAAAGUGGCUGUGGCUAGACUGCCUCUCUGGAUUCCUCGUCACUCAGCAGGGCAUCUCUGAGAGAAAUGCC

The variants in the data set derive from B1. The data set is described as follows: self-cleavage, relative activity (ratio to wild type); higher = more cleavage; in vitro, sequencing; the parent is a self-cleaving ribozyme.
UACGUAGGUGGUUUUCCCCUGAUAGUGCUAAGGGGGCCUGGAAGUUUGGACUGGGCUGAGCUCAACACAGCGUGGCAAAGUGGCUGUGGCUAGACUGCCUCUCUGGAUUCCUCGUCACUCAGCAGGGCGACUCUGAGAGAAAUGCC [A57U A129G U130A]: the self-cleavage turned out to be 0. To UACGUAGGUGGUUUUCCCCUGAUAGUGCUAAGGGGGCCUGGAAGUUUGGACUGGGCGGAGCUCAACACAGCGUGGCAAAGUGGCUGUGGCUAGACUGCCUCUCUGGAUUCCUCGCCACUCAGCAGGGCAUCUCUGAGAGAGAUGCC [A57G U115C A141G] belongs 1.69; to UACGUAGGUGGUUUUCCCCUGAUAGUGCUAAGGGGGCCUGGAAGUUUGGACUGGGCUGAGCUCAACACAGCGUGGCAAAGUGGCUGUGGCUAGGCUGCCUCUCUGGAUUCCUCGUCACUCAGCAGGGCAUCUCUGAGAGGAAUGCC [A57U A94G A140G], 0.26. As for UACGUAGGUGGUUUUCCCCUGAUAGUGCUAAGGGGGCCUGGAAGUUUGGACUGGGCUGAGCUCAACACAGCGUGGCAAAGUGGCUGUGGCUAGACUGCCUCUCUGGUUUCCUCGUCACUCAGCAGGGCAUCUCUGAGAGAAGUGCC [A57U A107U A142G], the figure is 0.19; as for UACGUAGGUGGUUUUCCCCUGAUAGUGCUAAGGGGGCCUGGAAGUUUGGACUGGGCUGAGCUCAACACAGCGUGGCAAAGUGGCUGUGGCUAGACUGCCUCUCUGGAUUCCUCGUCACUCAGCAGGGCGUCUCUGAGAGAGAUGCC [A57U A129G A141G], 0. Regarding UACGUAGGUGGUUUUCCCCUGAUAGUGCUAAGGGGGCCUGGAAGUUUGGACUGGGCUGAGCUCAACUCAGCGUGGCAAAGUGGCUGUGGCUAGACUGCCUCUCUGGAUUCCUCGUCACUCAGCAGGGCAUCUCUGAGAGAGAUGCC [A57U A67U A141G], the self-cleavage was determined as 0.06. As for UACGUAGGUGGUUUUCCCCUGAUAGUGCUAAGGGGGCCUGGAAGUUUGGACUGGGCGGAGCUCAACACAGCGUGGCAAAGUGGCUGUGGCUAGACUGCCACUCUGGAUCCCUCGUCACUCAGCAGGGCAUCUCUGAGAGAAAUGCC [A57G U100A U109C], the figure is 0; as for UACGUAGGUGGUUUUCCCCUGAUAGUGCUAAGGGGGCCUGGAAGUUUGGACUGGGCGGAGCUCAACACAGCGUGGCAAAGUGGCUGUGGCUAGACAGCCUCUCUGGAUUCCUCGUCACUCAGCAGGGCAUCUCUGAGAGAGAUGCC [A57G U96A A141G], 0.04; as for UACGUAGGUGGUUUUCCCCUGAUAGUGCUAAGGGGGCCUGGAAGUUUGGACUGGGCUGAGCUCAUCACAGCGUGGCAAAGUAGCUGUGGCUAGACUGCCUCUCUGGAUUCCUCGUCACUCAGCAGGGCAUCUCUGAGAGAAAUGCC [A57U A65U G82A], 0.04.

On to UACGUAGGUGGUUUUCCCCUGAUAGUGCUAAGGGGGCCUGGAAGUUUGGACUGGGCUGAGCUCAACACAGCGUGGCAAAGUGGCUGUGGCUAGACUGCCUCUCUGGAUUCCUCGUCGCUCAGCAGGGCAUCUCUGGGAGAAAUGCC [A57U A117G A136G], for which the self-cleavage stood at 0.19. To UACGUAGGUGGUUUUCCCCUGAUAGUGCUAAGGGGGCCUGGAAGUUUGGACUGGGCUGAGCUCAACACAGCGUGGCGAAGUGGCUGUGGCUAGGCUACCUCUCUGGAUUCCUCGUCACUCAGCAGGGCAUCUCUGAGAGAAAUGCC [A57U A77G A94G G97A] belongs 0; to UACGUAGGUGGUUUUCCCCUGAUAGUGCUAAGGGGGCCUGGAAGUUUGGACUGGGCUGUGCUCAACACAGCGCGGCAAAGUGGCUGUGGCUAGACUGCCUCUCUGGAUUCCUCGUCACUCAGCGGGGCACCUCUGAGAGAAAUGCC [A57U A59U U73C A124G U130C], 0.

With UACGUAGGUGGUUUUCCCCUGAUAGUGCUAAGGGGGCCUGGAAGUUUGGACUGGGCUGAGCUCAACACAGCGUGGCAAAGUGGCUGUGGCUAGACUGCCUCUCUGGAUUCCUCGUCACUCAGCAGGGCAUCUCUGAGAGAAUUGCU [A57U A142U C146U], the self-cleavage was 0.1. As for UACGUAGGUGGUUUUCCCCUGAUAGUGCUAAGGGGGCCUGGAAGUUUGGACUGGGCGGAGCUCAACACAGCGUGGCAAAGUGGCUGUGGCUAGACUGCCUCUCUGGAUUCCUCGUCACUCAGCAGGGCAUCUCCGAGUGAAAUGCC [A57G U134C A138U], the figure is 0.41. To UACGUAGGUGGUUUUCCCCUGAUAGUGCUAAGGGGGCCUGGAAGUUUGGACUGGGCUGAGCUCAACACAGCGUGGCAAAGUGGCUGUGGCUAGACUGCCUCUCUGGGUUCCUCGUCGCUCAGCAGGGCACCUCUGAGAGAAAUGCC [A57U A107G A117G U130C] belongs 0; to UACGUAGGUGGUUUUCCCCUGAUAGUGCUAAGGGGGCCUGGAAGUUUGGACUGGGCUGAGCUCAACACAGCGUGGCAAAGUGGCUGUGGCUAGACUGCCUCUCUGGCUUCCUCGUCACUCAGCAGGGCAUCCCUGAGAGAAAUGCC [A57U A107C U132C], 0.12; to UACGUAGGUGGUUUUCCCCUGAUAGUGCUAAGGGGGCCUGGAAGUUUGGACUGGGCUGGGCUCAACACAGCGUGGCAAAGUGGCUGUGGCUAGUCUGCCUCUCUGGAUUCCUCGUCACUCAGCAGGGCAUCUCUGAGAGAAAUGCC [A57U A59G A94U], 0.04. As for UACGUAGGUGGUUUUCCCCUGAUAGUGCUAAGGGGGCCUGGAAGUUUGGACUGGGCUGAGCUCAAUACAGCGUGGCAAAGUGGCUGUGGCUAGACUGCCUCUCUGGAUUCCUCGUCACUCAGCAGGGCAUCUCUGGGAGAAAUGCC [A57U C66U A136G], the figure is 0.02; as for UACGUAGGUGGUUUUCCCCUGAUAGUGCUAAGGGGGCCUGGAAGUUUGGACUGGGCUGAGCUCAACACAGCGUGGCAAAGUGGCUGUGGCUAGACUGCCUCUCUGGAUUCCUCGUCACUCAGCAGGGCAUCUCUGUGAGGAAUGCC [A57U A136U A140G], 0.02. Turning to UACGUAGGUGGUUUUCCCCUGAUAGUGCUAAGGGGGCCUGGAAGUUUGGACUGGGCUGAGCUCAACACAGCGUGGCAAGGUGGCUGUGGCUAGACUGCCUCUCUGGGUUCCUCGUCACUCAGCAGGGCAUCUCUGAGAGAGAUGCC [A57U A79G A107G A141G], the self-cleavage came out at 0. To UACGUAGGUGGUUUUCCCCUGAUAGUGCUAAGGGGGCCUGGAAGUUUGGACUGGGCGGAGCUCAACACAGCGUGGCAAAGUGGCUGUGGCUAGACUGCCUCUCUGGAUCCCUCGUCACUCAGCAGGGCAUCUCUGAGAGAGAUGCC [A57G U109C A141G] belongs 0.47; to UACGUAGGUGGUUUUCCCCUGAUAGUGCUAAGGGGGCCUGGAAGUUUGGACUGGGCUGAGCUCAACACAGCGUGGCAAAGUGGCUGUGGCUAGACUGCCUCUCUGGAUUCCUCGUCACUCAGCCGGGCAUCACUGAGAGAAAUGCC [A57U A124C U132A], 0.07; to UACGUAGGUGGUUUUCCCCUGAUAGUGCUAAGGGGGCCUGGAAGUUUGGACUGGGCUGAGCUCAACACAGCGUGGCAAAGUGGCUGUGGCUAGGCUGCCUCUCUGGAUUCCUCGUCACUCAGCAGGGCGUCUCUGAGAGAAAUGCC [A57U A94G A129G], 0.37. Regarding UACGUAGGUGGUUUUCCCCUGAUAGUGCUAAGGGGGCCUGGAAGUUUGGACUGGGCUGAGCUCAACACAGCGUGGCGAAGUGGCUGUGGCUAGACUGCCUCUCUGGAUUCCUCGUCACUCAGCAGGGCAUCUCUGAGAGAGAUGCC [A57U A77G A141G], the self-cleavage came to 0.18. As to UACGUAGGUGGUUUUCCCCUGAUAGUGCUAAGGGGGCCUGGAAGUUUGGACUGGGCGGAGCUCAACACAGCGUGGCAAAGUGGCUGUGGCUAGACUGCCUCUCUGGACUCCUCGUCACUCAGCAGGGCAUCUCUGAGAGAGAUGCC [A57G U108C A141G], the self-cleavage was 1.93. To UACGUAGGUGGUUUUCCCCUGAUAGUGCUAAGGGGGCCUGGAAGUUUGGACUGGGCGGAGCUCAACACAGCGUGGCAAAGUGGCUGUGGCUAGACUGCCCCUCUGGAUUCCUAGUCACUCAGCAGGGCAUCUCUGAGAGAAAUGCC [A57G U100C C113A] belongs 0.73; to UACGUAGGUGGUUUUCCCCUGAUAGUGCUAAGGGGGCCUGGAAGUUUGGACUGGGCUGAGCUCAACACAGCGUGGCAAAGUGGCUGUGGCUAGACUGCCUCUCUGGAUUCCUCGUCGCUCAGCAGGGCAUCUCUGAGAGAAGUGCC [A57U A117G A142G], 0.14; to UACGUAGGUGGUUUUCCCCUGAUAGUGCUAAGGGGGCCUGGAAGUUUGGACUGGGCGGAGCUCAACACAGCGUGGCAAAGUGGCUGUGGCUAGACUGCCUCUCUGGAUUCCUCGUCACUCAGCAGGGCAUCCCUGAGAGAACUGCC [A57G U132C A142C], 0.95. Turning to UACGUAGGUGGUUUUCCCCUGAUAGUGCUAAGGGGGCCUGGAAGUUUGGACUGGGCGGAGCUCAACACAGCGUGGCAAAGUGGCUGUGGCUAGACUGCCUCUCUGGAUUCCUCGUCACCCAGCAGGGCUUCUCUGAGAGAAAUGCC [A57G U119C A129U], the self-cleavage amounted to 1.62. To UACGUAGGUGGUUUUCCCCUGAUAGUGCUAAGGGGGCCUGGAAGUUUGGACUGGGCUGGGCUCAACACAGCGUGGCGAAGUGGCUGUGGCUAGACUGCCUCUCUGGAUUCCUCGUCACUCAGCAGUGCAUCUCUGGGAGAAAUGCC [A57U A59G A77G G126U A136G] belongs 0.1. Turning to UACGUAGGUGGUUUUCCCCUGAUAGUGCUAAGGGGGCCUGGAAGUUUGGACUGGGCUGAGCUCUACACAACGUGGCAAAGUGGCUGUGGCUAGACCGCCUCUCUGGAUUCCCCGUCACUCAGCAGGGCAUCUCUGAGAGAAAUGCC [A57U A64U G70A U96C U112C], the self-cleavage came out at 0. In the case of UACGUAGGUGGUUUUCCCCUGAUAGUGCUAAGGGGGCCUGGAAGUUUGGACUGGGCUGUGCUCAACACAGCGUGGCAAAGUGGCUGUGGCUAGACUGCCUCUCUGGAUUCCUCGUCACUCAGCAGGGCAUCUCUGAGUGAAAUGCC [A57U A59U A138U], the self-cleavage turned out to be 0.28. On to UACGUAGGUGGUUUUCCCCUGAUAGUGCUAAGGGGGCCUGGAAGUUUGGACUGGGCGGAGCUCAACACAGCGUGGCAAAGUGGCUGUGGCUAGACUGCCUCUCUGGAUUCCUCGUCACCCAGCAGGGCAUCUCUGAGAGAGAUGCC [A57G U119C A141G], for which the self-cleavage was 1.67. To UACGUAGGUGGUUUUCCCCUGAUAGUGCUAAGGGGGCCUGGAAGUUUGGACUGGGCUGAGCUCAACGCAGCGUGGCAAAGUGGCUGUGGCUAGGCUGCCUCUCUGGAUUCCUCGUCACUCAGCAGGGCAUCUCUGAGAGAAAUGCC [A57U A67G A94G] belongs 0; to UACGUAGGUGGUUUUCCCCUGAUAGUGCUAAGGGGGCCUGGAAGUUUGGACUGGGCUGAGCUCAACACAGCGUGGCGAAGAGGCUGUGGCUAGGCUGCCUCUCUGGAUUCCUCGUCACUCAGCAGGGCAUCUCUGAGAGAGAUGCC [A57U A77G U81A A94G A141G], 0.09. Take UACGUAGGUGGUUUUCCCCUGAUAGUGCUAAGGGGGCCUGGAAGUUUGGACUGGGCUGAGCUCAACACAGCGUGGCAGAGUGGCUGUGGCUAGACUGCCUCUCUGGAUUCCUCGUCACUCCGCAUGGCAUCUCUGAGAGAAAUGCC [A57U A78G A121C G125U]: the self-cleavage was determined as 0.02.

Take UACGUAGGUGGUUUUCCCCUGAUAGUGCUAAGGGGGCCUGGAAGUUUGGACUGGGCUGAGCUCAACACAGCGUGGCUAAGUGGCUGUGGCUAGACUGCCUCUCUGGAUUCCUCGUCACUAAGCAGGGCAUCUCUGAGAGAAAUGCC [A57U A77U C120A]: the self-cleavage worked out at 0.11. As for UACGUAGGUGGUUUUCCCCUGAUAGUGCUAAGGGGGCCUGGAAGUUUGGACUGGGCGGAGCUCAACACAGCGUGGCAAAGUGGCUGUGGCUAGACUGCCUCUCUGGAUUCCACGUCACUCAGCAGGGCACCUCUGAGAGGAAUGCC [A57G U112A U130C A140G], the figure is 1.3; as for UACGUAGGUGGUUUUCCCCUGAUAGUGCUAAGGGGGCCUGGAAGUUUGGACUGGGCUGAGCUCAACACUGCGUGGCAAAGUGGCUGUGGCUAGACAGCCUCUCUGGAUUCCUCGUCACUCAGCAGGGCAUCUCUGAGAGAAAUGCC [A57U A69U U96A], 0.06.

For the origin of these results see the RNAGym collection of RNA variant scans (doi:10.7554/elife.90254).
